The values that follow come from the RNAGym collection of RNA variant scans (doi:10.1073/pnas.2313332121).

Sequences and labels used below:
B1: TPR 5TU (parent)
chain: GGAUCUUCUCGAUCUAACAAAAAAGACAAAUCUGCCACAAAGCUUGAGAGCAUCUUCGGAUGCAGAGGCGGCAGCCUUCGGUGGCGCGAUAGCGCCAACGUUCUCAACUAUGACACGCAAAACGCGUGCUCCGUUGAAUGGAGUUUAUCAUG

Variants at the background level are over-represented here.

The data set covers variants of B1. The data set is described as follows: polymerase ribozyme fitness, log enrichment relative to wild type (log ratio); higher = more active; in vitro selection for triplet polymerase activity. The method, boiled down:
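For each subunit of a heterodimeric triplet polymerase ribozyme, a mutant library was built by PCR and transcribed, then taken through a single in vitro selection round in triplicate. Selection involved annealing to a biotinylated primer, the partner subunit and triplets, incubation frozen at −7 °C, gel excision of extended constructs, capture on streptavidin beads and RT-PCR. Genotypes were retained after Illumina sequencing of inputs and outputs only with ≥10 input reads and ≥1 read in each output. Fitness is defined as the logarithm of a genotype's enrichment relative to wild-type enrichment, using inverse-variance-weighted averages across replicates, with the logarithm taken to base 2.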
As for G88U G92A C99A C108G U139G, the “polymerase ribozyme fitness (log ratio)” value was no more than -4.2. Under A91U C114U U148G stands no more than -4.2; under C87U C108G U127C G136A, no more than -4.2; under A89G A97G A113U C118A A120C G141C, no more than -4.2.

For the variant G88U C93U C105U C149A, the “polymerase ribozyme fitness (log ratio)” value is no more than -4.2.

On to A91G G140C, for which the “polymerase ribozyme fitness (log ratio)” value was no more than -4.2.

For A89G C95U A142C, the “polymerase ribozyme fitness (log ratio)” value is -2.81.

Regarding U90C C118G A122U, the “polymerase ribozyme fitness (log ratio)” value was no more than -4.2. Under U90C C99G A138G stands no more than -4.2; under G88A C103G C123A A142C, no more than -4.2. Under C87G U104G stands no more than -4.2. For G88U C114U U148A U151G the value was no more than -4.2.

In the case of G92C U101G C131A, the “polymerase ribozyme fitness (log ratio)” value is -3.96. Under A91G C114A C116U A137C stands -3.79.

As to G92A G141C A147U, the “polymerase ribozyme fitness (log ratio)” value is -3.44. Under C87U G136C stands -3.65; under U90A C96G A97U C105U A107G U151G, no more than -4.2; under A89C G94U U109G A113C C114G, no more than -4.2.

For G88A C118A A120G, the “polymerase ribozyme fitness (log ratio)” value is no more than -4.2. For A89U C95A U111G C131A G152A the value was no more than -4.2; for A91C A98U C105U A120G, no more than -4.2. Under G88C A122C stands no more than -4.2; under A91C A106G, no more than -4.2. For G88C A89C C95U the value was no more than -4.2; for A91C C118U, no more than -4.2. With A91C C118G, the “polymerase ribozyme fitness (log ratio)” value is no more than -4.2.

C87U A106G U139C: the “polymerase ribozyme fitness (log ratio)” value was -3.59.

In the case of G88C U102G, the “polymerase ribozyme fitness (log ratio)” value was no more than -4.2. Under A89U U148G stands -3.92; under C87U U104G, -0.825. Under A91C C108G A120U stands no more than -4.2; under C87G G141C, -3.99; under G92C U134G, -1.68. Under A91U A113C A150C stands no more than -4.2; under A91G C96A G100U A119C, no more than -4.2; under G92A, -2.51. In the case of C87U A122C G133U, the “polymerase ribozyme fitness (log ratio)” value is no more than -4.2. With G92A G124C, the “polymerase ribozyme fitness (log ratio)” value was -3.03. For G92A G133A the value was no more than -4.2. For C87U A98C the value was -1.07. For A91U U134G A137U the value was no more than -4.2. C87U G100U C116A: the “polymerase ribozyme fitness (log ratio)” value is no more than -4.2. As to G88U A138C, the “polymerase ribozyme fitness (log ratio)” value was no more than -4.2. Consider G88U, for which the “polymerase ribozyme fitness (log ratio)” value is -3.89. In the case of G88C, the “polymerase ribozyme fitness (log ratio)” value was -4.19. For G88A the value was -3.75; for U90A A91G, no more than -4.2; for G88C A137U G143A, no more than -4.2. Under G88A G124C stands no more than -4.2. Under A91U U145G stands no more than -4.2. For G92A G143U A150C, the “polymerase ribozyme fitness (log ratio)” value was no more than -4.2. With G92C C95A, the “polymerase ribozyme fitness (log ratio)” value is -2.12.

Turning to A91G G100U A106C, the “polymerase ribozyme fitness (log ratio)” value was no more than -4.2. For A89U C95G the value was -1.9.

For U90G C116G, the “polymerase ribozyme fitness (log ratio)” value is -3.78.

Take G88A A89G: the “polymerase ribozyme fitness (log ratio)” value is -3.67. For G92C G94A the value was -2.95; for A89G G124U, -1.93. For G88C A120U G126A U130G U139A the value was no more than -4.2.

As for G88A C116U, the “polymerase ribozyme fitness (log ratio)” value was -4.05.

Take A91U U109G G141U: the “polymerase ribozyme fitness (log ratio)” value was no more than -4.2.

Turning to G88C C105A, the “polymerase ribozyme fitness (log ratio)” value was no more than -4.2. For C87U A137C the value was -3.99; for G92A C95A C125G, -3.82.

For G92C G141C, the “polymerase ribozyme fitness (log ratio)” value was -0.623.

As to A89C A142G, the “polymerase ribozyme fitness (log ratio)” value was -1.52.

Consider C87U G100A U139C A142C A150U, for which the “polymerase ribozyme fitness (log ratio)” value is no more than -4.2.

C87U C105U: the “polymerase ribozyme fitness (log ratio)” value was -2.21.

As to A91C A120C, the “polymerase ribozyme fitness (log ratio)” value was no more than -4.2. For G88C A97U G133C the value was no more than -4.2; for A89G C125A, -1.77; for G92A U134G U144A, no more than -4.2. Turning to G88U U134A U148G, the “polymerase ribozyme fitness (log ratio)” value is no more than -4.2. Under A91U A147G stands no more than -4.2; under C87G C131G, no more than -4.2; under G88U C95G C125U, no more than -4.2.

As for A89U A91C C96G, the “polymerase ribozyme fitness (log ratio)” value is no more than -4.2. Under G88U C93A G126U A138G U144C stands no more than -4.2; under A91U A97U, no more than -4.2; under C87G U144G, no more than -4.2.

In the case of G92A C116A G141A, the “polymerase ribozyme fitness (log ratio)” value was no more than -4.2. Under A91U U148A stands no more than -4.2; under A91U U148G, no more than -4.2; under A91U A142U, -3.67.

For C87U C108U, the “polymerase ribozyme fitness (log ratio)” value is -3.61.

Regarding A91C U109G G140U, the “polymerase ribozyme fitness (log ratio)” value was no more than -4.2. Under G88C C114A C118A G128A G141C stands no more than -4.2. For C87U A89G C103U A115C C123U G143U the value was no more than -4.2; for G92A C116U C125U U134C, no more than -4.2; for A91C C96A G126A, no more than -4.2. For A91U C96G A98G C105G G143A the value was no more than -4.2.

In the case of G88A U102C G112A A122U G136A G141U U146A, the “polymerase ribozyme fitness (log ratio)” value is no more than -4.2. Under G88A C116A U151G stands no more than -4.2; under C87U A122U, -0.5; under G88A A106U, no more than -4.2.

A89U U109G: the “polymerase ribozyme fitness (log ratio)” value was -0.917. Under C87U C131A G140A stands -3.61; under G88A U104G A113U A121C C123A U144G U145G, no more than -4.2; under C87U U146G, -0.864. Under U90A C99A U109C A122G C125G stands no more than -4.2. On to U90G G133C G141C, for which the “polymerase ribozyme fitness (log ratio)” value is no more than -4.2. For G92C A113C C132A the value was no more than -4.2; for A89C C95A A110C, no more than -4.2. As for A91G G100A C149A, the “polymerase ribozyme fitness (log ratio)” value is no more than -4.2. For A91C C116A the value was no more than -4.2; for G92C A107G A120C U127C G152A, no more than -4.2.

As for G92C A98G U101G A110G A120G G133C U134G G141C A147G, the “polymerase ribozyme fitness (log ratio)” value is no more than -4.2.

Regarding A91U U139A G140C G143C, the “polymerase ribozyme fitness (log ratio)” value was no more than -4.2. In the case of G88C U104G G128A A137U A138G G140U, the “polymerase ribozyme fitness (log ratio)” value was no more than -4.2.

Turning to A89U C93U C99U, the “polymerase ribozyme fitness (log ratio)” value is no more than -4.2.

As for C87U C93A U135A, the “polymerase ribozyme fitness (log ratio)” value is no more than -4.2.

Take A89U C95A A97U U111G G124A C149A U151C: the “polymerase ribozyme fitness (log ratio)” value is no more than -4.2. With A91U A106G U135G, the “polymerase ribozyme fitness (log ratio)” value was no more than -4.2.

G92C U148A: the “polymerase ribozyme fitness (log ratio)” value was no more than -4.2.

Consider G92C U148C, for which the “polymerase ribozyme fitness (log ratio)” value is -2.56.

In the case of G92C U135C, the “polymerase ribozyme fitness (log ratio)” value was -2.88. Under A91U U151G stands no more than -4.2; under C87U U90C G141C, no more than -4.2; under A91C G141A, no more than -4.2.

For G92A C123A G126U U148A, the “polymerase ribozyme fitness (log ratio)” value was no more than -4.2. For A91U A115G G133C the value was no more than -4.2; for G88A C103U, no more than -4.2.

Regarding A91U C123A, the “polymerase ribozyme fitness (log ratio)” value is no more than -4.2. Turning to A91G G100U A113U A120G C125A U139G, the “polymerase ribozyme fitness (log ratio)” value is no more than -4.2. As to A91G G100C A119C U130A, the “polymerase ribozyme fitness (log ratio)” value was no more than -4.2. For G92A C96G the value was no more than -4.2; for C87U G88C U90A G124U, no more than -4.2; for A91C C125U, no more than -4.2. For C87U G124A the value was -0.0826. For G92A U134A the value was no more than -4.2; for A91C C118G G140C, no more than -4.2; for U90C U148G, no more than -4.2.

As to C87U C131U, the “polymerase ribozyme fitness (log ratio)” value came to 1.46. For U90A U109A the value was no more than -4.2; for G88U A115G A121U, no more than -4.2. Regarding A91G U130G A150G, the “polymerase ribozyme fitness (log ratio)” value was no more than -4.2. Under A91U A98G U102G C105U stands no more than -4.2; under G88U U127C, -4.15. For G92A U127G the value was -3.27; for G92A U148A, no more than -4.2; for U90A G124A, no more than -4.2. Under G88A C118A stands no more than -4.2; under G88U A137G, no more than -4.2. Consider A91G U104G A115C, for which the “polymerase ribozyme fitness (log ratio)” value is -4.06. For G88C C105U C116U the value was no more than -4.2. Under U90A U134A A137C stands no more than -4.2. For A89C C95U the value was -1.49. In the case of C87U G88C A89G G124C G126A, the “polymerase ribozyme fitness (log ratio)” value was no more than -4.2. For G88U C95G A115U C123G C129G U130A G140U U145G the value was no more than -4.2; for C87G U109C U144C, no more than -4.2; for G88C C95U C108A U146A C149A, no more than -4.2. Under G88U C93U stands no more than -4.2; under C87G G94C C125G U135C U151A G152A, no more than -4.2. For A89G G128C A142U U148A the value was no more than -4.2. In the case of G88A U101G U102G A138U U139G, the “polymerase ribozyme fitness (log ratio)” value is no more than -4.2. For G88U C95A U134A the value was no more than -4.2; for C87U A98G A106G, -1.08. In the case of G88C A150C U151A, the “polymerase ribozyme fitness (log ratio)” value was no more than -4.2. For G92C U101G the value was -0.874.

In the case of A89U A121U, the “polymerase ribozyme fitness (log ratio)” value was -0.72.

Take G88A A147C: the “polymerase ribozyme fitness (log ratio)” value was -4.01. Under G92A C93A C105U A115C G124A U144A stands no more than -4.2; under U90C A91G A120U C129A G141C, no more than -4.2. Under G88A C93G stands no more than -4.2; under G88C C95U, no more than -4.2. Under G88C C95G stands no more than -4.2.

For the variant C87U A106G, the “polymerase ribozyme fitness (log ratio)” value is -0.549.
